Several values for one entry are separate records, joined by “and”; a condition that tells them apart may be missing. Equal entries are not always repeated. This continues a long series; more values of the same kind are listed elsewhere.
System: Pol I transcription
Assay: Inhibition of Pol I transcription: 47S precursor rRNA levels by quantitative RT-PCR after 1 h treatment
Type: cell-based, human
Details: individual replicates
Description: Fig. 1 Sensitivity of ovarian cancer (OVCA) cell lines to CX-5461. a CX-5461 doses that induce 50% growth inhibition (GI50) at 48 hours. Error bars represent mean ± standard deviation (SD). Asterisks denote mutated TP53 status. […] Information regarding each cell lines source, mean G1_50 values, SD and N values are outlined in Supplementary Table 1. […] Statistical analysis was performed using a two-sided Mann–Whitney test. Error bars represent mean ± SD. c Baseline rDNA transcription rates of OVCA cell lines (listed in (d)), as determined by quantitative real-time PCR (qRT-PCR) analysis using primers specific to the external transcribed spacer 5’ETS (+413–521 bp) relative to the transcription start site (TSS). Expression levels in each cell line were normalised to Vimentin mRNA and expressed as fold change relative to TOV112D cells. Each dot represents the mean value of n = 3 biologically independent experiments per cell line (Individual data points are provided in Supplementary Data 4). Error bars represent mean ± SD. Statistical analysis was performed using a two-tailed unpaired t test. d Dose-response curves of 47S precursor rRNA levels measured by quantitative RT-PCR. OVCA cell lines were treated with vehicle or increasing drug concentrations of CX-5461 (0.001, 0.01, 0.03, 0.1, 0.3, 1 and 3 μM) for 1 h before RNA was harvested. Expression levels were normalised to Vimentin mRNA and expressed as fold change relative to vehicle-treated controls. Shown are the mean of n = 3 independent biological experiments for each cell line. (Individual data points are provided in Supplementary Data 4). e The mean inhibitory concentration values that led to 50% transcription inhibition (IC50) (of n = 3 biologically independent experiments for each cell line) from D are presented (Individual data points are provided in Supplementary Data 4). Error bars represent mean ± SD. Statistical analysis was performed using a two-sided Mann–Whitney test.
For Reverse-transcription qPCR analysis, cells were lysed, RNA extracted, and first-strand cDNA synthesized using random hexamer primers (Promega, C1181) and Superscript III (Invitrogen,18080044). Quantitative PCR (qPCR) was performed in duplicate using the FAST SYBR Green dye (Applied Biosystems, 4385610) on the StepOnePlus real-time PCR system (Applied Biosystems). Primer sequences are listed in (Supplementary Table 3).
Dose-response curves of 4 7S precursor rRNA levels (Figure 1D) measured by quantitative RT-PCR after 1h treatment. Expression levels
were normalised to Vimentin mRNA and expressed as fold change relative to vehicle-treated controls.
IC50 doses (Figure 1E) were determined from dose response curves in Figure 1D
using GraphPad Prism version 8.

SMILES: Cc1cnc(CNC(=O)c2c(=O)c3ccc(N4CCCN(C)CC4)nc3n3c2sc2ccccc23)cn1 [CX-5461]
- 47S precursor rRNA level, fold change relative to vehicle-treated controls (Kuramochi, CX-5461 0.0000001 M): 0.4643 and 0.6229 and 0.6436
- 47S precursor rRNA level, fold change relative to vehicle-treated controls (Kuramochi, CX-5461 0.0000003 M): 0.203 and 0.3708 and 0.2892
- 47S precursor rRNA level, fold change relative to vehicle-treated controls (Kuramochi, CX-5461 0.000001 M): 0.1284 and 0.2771 and 0.273
- 47S precursor rRNA level, fold change relative to vehicle-treated controls (Kuramochi, CX-5461 0.000003 M): 0.1269 and 0.4904 and 0.2868
- 47S precursor rRNA level, fold change relative to vehicle-treated controls (Kuramochi, CX-5461 1E-09 M): 0.6891 and 1.454 and 1.172
- 47S precursor rRNA level, fold change relative to vehicle-treated controls (OV90, CX-5461 0.00000001 M): 1.369 and 2.91 and 2.34
- 47S precursor rRNA level, fold change relative to vehicle-treated controls (OV90, CX-5461 0.00000003 M): 1.406 and 3.108 and 3.035
- 47S precursor rRNA level, fold change relative to vehicle-treated controls (OV90, CX-5461 0.0000001 M): 0.9052 and 2.42 and 1.655
- 47S precursor rRNA level, fold change relative to vehicle-treated controls (OV90, CX-5461 0.0000003 M): 0.5867 and 0.7303 and 0.7716
- 47S precursor rRNA level, fold change relative to vehicle-treated controls (OV90, CX-5461 0.000001 M): 0.3213 and 0.81 and 0.7174
- 47S precursor rRNA level, fold change relative to vehicle-treated controls (OV90, CX-5461 0.000003 M): 0.3469 and 0.4984 and 0.6639
- 47S precursor rRNA level, fold change relative to vehicle-treated controls (OV90, CX-5461 1E-09 M): 3.225 and 2.768
- 47S precursor rRNA level, fold change relative to vehicle-treated controls (OVCAR3, CX-5461 0.00000001 M): 0.7439 and 0.6379 and 0.9279
- 47S precursor rRNA level, fold change relative to vehicle-treated controls (OVCAR3, CX-5461 0.00000003 M): 0.8636 and 0.7649 and 0.9345
- 47S precursor rRNA level, fold change relative to vehicle-treated controls (OVCAR3, CX-5461 0.0000001 M): 0.4021 and 0.347 and 0.6221
- 47S precursor rRNA level, fold change relative to vehicle-treated controls (OVCAR3, CX-5461 0.0000003 M): 0.3676 and 0.4664 and 0.3415
- 47S precursor rRNA level, fold change relative to vehicle-treated controls (OVCAR3, CX-5461 0.000001 M): 0.1746 and 0.1458 and 0.2499
- 47S precursor rRNA level, fold change relative to vehicle-treated controls (OVCAR3, CX-5461 0.000003 M): 0.1679 and 0.1179 and 0.2699
- 47S precursor rRNA level, fold change relative to vehicle-treated controls (OVCAR3, CX-5461 1E-09 M): 1.013 and 0.8328 and 1.023
- 47S precursor rRNA level, fold change relative to vehicle-treated controls (OVCAR4, CX-5461 0.00000001 M): 1.051 and 0.8553 and 0.8181
- 47S precursor rRNA level, fold change relative to vehicle-treated controls (OVCAR4, CX-5461 0.00000003 M): 1.218 and 0.953 and 1.234
- 47S precursor rRNA level, fold change relative to vehicle-treated controls (OVCAR4, CX-5461 0.0000001 M): 0.5426 and 0.5084 and 0.4691
- 47S precursor rRNA level, fold change relative to vehicle-treated controls (OVCAR4, CX-5461 0.0000003 M): 0.1516 and 0.1261 and 0.1408
- 47S precursor rRNA level, fold change relative to vehicle-treated controls (OVCAR4, CX-5461 0.000001 M): 0.1019 and 0.07958 and 0.07862
- 47S precursor rRNA level, fold change relative to vehicle-treated controls (OVCAR4, CX-5461 0.000003 M): 0.09734 and 0.07398 and 0.1166
- 47S precursor rRNA level, fold change relative to vehicle-treated controls (OVCAR4, CX-5461 1E-09 M): 0.8151 and 0.6926 and 0.9247
- 47S precursor rRNA level, fold change relative to vehicle-treated controls (OVCAR8, CX-5461 0.00000001 M): 1.156 and 0.9594 and 0.9199
- 47S precursor rRNA level, fold change relative to vehicle-treated controls (OVCAR8, CX-5461 0.00000003 M): 1 and 0.9185 and 0.8175
- 47S precursor rRNA level, fold change relative to vehicle-treated controls (OVCAR8, CX-5461 0.0000001 M): 0.5891 and 0.5889 and 0.5184
- 47S precursor rRNA level, fold change relative to vehicle-treated controls (OVCAR8, CX-5461 0.0000003 M): 0.3671 and 0.2018 and 0.2507
- 47S precursor rRNA level, fold change relative to vehicle-treated controls (OVCAR8, CX-5461 0.000001 M): 0.1509 and 0.1089 and 0.1175
- 47S precursor rRNA level, fold change relative to vehicle-treated controls (OVCAR8, CX-5461 0.000003 M): 0.09518 and 0.1073 and 0.12
- 47S precursor rRNA level, fold change relative to vehicle-treated controls (OVCAR8, CX-5461 1E-09 M): 1.162 and 0.9381 and 0.8876
- 47S precursor rRNA level, fold change relative to vehicle-treated controls (TOV112D, CX-5461 0.00000001 M): 2.075
- 47S precursor rRNA level, fold change relative to vehicle-treated controls (TOV112D, CX-5461 0.00000003 M): 0.9065 and 1.402
- 47S precursor rRNA level, fold change relative to vehicle-treated controls (TOV112D, CX-5461 0.0000001 M): 0.7201 and 1.013
- 47S precursor rRNA level, fold change relative to vehicle-treated controls (TOV112D, CX-5461 0.0000003 M): 0.2911

From article PMC7251123, “CX-5461 activates the DNA damage response and demonstrates therapeutic efficacy in high-grade serous ovarian cancer” (Nature Communications, 2020)
